In all, about 52,000 compounds went through this assay and about 4,300 (8.3%) were called active. Cut-off read from the data, not from the text of the source: active = survival mostly below about 52% (no sharp cut-off); inactive = mostly above about 56%. The list shows a part of the results.
Each compound was assayed on DeltatarO mutant (assay: growth inhibition of S. aureus wild type versus tarO mutant, primary screen, teichoic acid synthesis inhibitors, RN4220, OD600 (AID 463173)). Details: OD600, 18 h, stronger effect = lower value, screened at 18.75 µg/mL (by protocol).
In the case of `CC(C)(C)C1CCc2c(sc(NC(=O)c3cc4ccccc4c(=O)o3)c2C(N)=O)C1` (stereo not given), the survival is reported as active: 44%. In the case of `CCCCCOc1ccc(/C=C/C(=O)Nc2sc(C)c(C)c2C(=O)OCC)cc1OC`, the survival is reported as inactive: 117%. For `COc1ccccc1NC(=O)Cn1cc(S(=O)(=O)Cc2ccccc2)c2ccccc21`, the survival was inactive: 76%. With `CC(C)NC(=O)C1CC(c2ccccc2O)=NO1` (stereo not given) the survival was inactive: 93%. With `CCN(CC)c1nc2ccccc2nc1C(=O)Nc1ccc(C(C)=O)cc1` the survival was inactive: 78%. With `Cc1ccc(C)c(NC(=O)CN(C)S(=O)(=O)c2cccc3nsnc23)c1` the survival was inactive: 88%. In the case of `Cc1ccc(-n2nc(C(=O)Nc3ccc(F)cc3F)c3c4ccccc4n(C)c3c2=O)cc1`, the survival is reported as inactive: 91%. For `Cc1cccc(N(C)c2nc3ccc(C(=O)c4ccccc4)cc3n3c(C)nnc23)c1`, the survival was inactive: 115%. In the case of `COc1ccc(Cc2nc3ccc(C(=O)NCc4ccccc4C)cc3o2)cc1`, the survival is reported as inactive: 95%. In the case of `COc1ccc(NC(=O)CN2C(=O)CC(c3ccc(C)c(C)c3)=Nc3ccccc32)cc1OC`, the survival is reported as inactive: 67%. For `CCC(CC)C(=O)Nc1ccc2nc(SCC(=O)N3CCCC3)sc2c1`, the survival was inactive: 99%. With `CCc1cccc(C)c1NC(=O)c1cc(S(=O)(=O)N(Cc2ccc(C(=O)OC)cc2)Cc2ccc(OC)c(OC)c2)ccc1F` the survival was inactive: 76%. In the case of `Cc1ccccc1Oc1nc2ccccn2c(=O)c1/C=C(\C#N)c1nc2ccccc2[nH]1`, the survival is reported as inactive: 72%. For `CCN(CC)CCNC(=O)Cn1ncc2c3ccccc3n(Cc3ccc(Cl)cc3)c2c1=O`, the survival was inactive: 137%. With `Cc1ccc(-c2csc(-c3nc(-c4ccc(Br)s4)cs3)n2)cc1` the survival was inactive: 82%. In the case of `COc1ccc(NC(=O)Cn2nnc(C(=O)NCc3cccs3)c2N)cc1`, the survival is reported as inactive: 95%. `Cc1ccc(NC(=O)CSc2nc(=O)n(Cc3cccnc3)c3c2CCC3)cc1F` was tested, and the survival was inactive: 67%. For `Cn1c(=O)[nH]c(=O)c2c1nc(N1CCOCC1)n2Cc1ccccc1`, the survival was inactive: 167%. In the case of `CCOC(=O)Cc1ccc(NC(=O)Nc2c[nH]c(=O)[nH]c2=O)cc1`, the survival is reported as inactive: 89%. In the case of `CCc1cccc(NC(=O)CCc2nc3cccnc3n2Cc2ccc(OC)cc2)c1`, the survival is reported as inactive: 69%. For `COc1cccc(-c2cc(C#N)on2)c1OC`, the survival was inactive: 78%. For `NC(=S)C(=S)N1CCOCC1`, the survival was inactive: 110%. With `CC(C)CCNC(=O)CN1C(=O)CSc2ccc(S(=O)(=O)N3CCC(C)CC3)cc21` the survival was inactive: 72%. `COc1cccc(C(=O)N(Cc2cccnc2)Cc2cc3cc(C)cc(C)c3[nH]c2=O)c1` was tested, and the survival was inactive: 81%. With `Cc1ccc2nc(-c3cccs3)c(Nc3c(C)cccc3C)n2c1` the survival was active: 35%.
